# Assay results from patent US8883841B2, “Oncogenic ras-specific cytotoxic compound and methods of use thereof” (The Board of Regents of the University of Texas System, priority 2005, dated 2014).
# Tests used:
# SW-620 = experiment: NCI in-vitro testing, SW-620 (Colon Cancer)
# MOLT-4 = experiment: NCI in-vitro testing, MOLT-4 (Leukemia)
# SNB-19 = experiment: NCI in-vitro testing, SNB-19 (CNS Cancer)
# OVCAR-5 = experiment: NCI in-vitro testing, OVCAR-5 (Ovarian Cancer)
# UACC-62 = experiment: NCI in-vitro testing, UACC-62 (Melanoma)
# K-562 = experiment: NCI in-vitro testing, K-562 (Leukemia)
# DU-145 = experiment: NCI in-vitro testing, DU-145 (Prostate Cancer)
# 786-0 = experiment: NCI in-vitro testing, 786-0 (Renal Cancer)
# HOP-62 = experiment: NCI in-vitro testing, HOP-62 (Non-Small Cell Lung Cancer)
# HCC-2998 = experiment: NCI in-vitro testing, HCC-2998 (Colon Cancer)
# CAKI-1 = experiment: NCI in-vitro testing, CAKI-1 (Renal Cancer); settings: CAK1-1
# MALME-3M = experiment: NCI in-vitro testing, MALME-3M (Melanoma)
# HL-60(TB) = experiment: NCI in-vitro testing, HL-60(TB) (Leukemia)
# SF-268 = experiment: NCI in-vitro testing, SF-268 (CNS Cancer)
# SK-MEL-28 = experiment: NCI in-vitro testing, SK-MEL-28 (Melanoma)
# SF-539 = experiment: NCI in-vitro testing, SF-539 (CNS Cancer)
# HT29 = experiment: NCI in-vitro testing, HT29 (Colon Cancer); settings: HT20
# MDA-MB-231/ATCC = experiment: NCI in-vitro testing, MDA-MB-231/ATCC (Breast Cancer)
# SNB-75 = experiment: NCI in-vitro testing, SNB-75 (CNS Cancer)
# OVCAR-3 = experiment: NCI in-vitro testing, OVCAR-3 (Ovarian Cancer)
# KM12 = experiment: NCI in-vitro testing, KM12 (Colon Cancer)
# [1] = Log10 Concentration −4.0 (Molar)
# [2] = Log10 Concentration −5.0 (Molar)
# [3] = Log10 Concentration −6.0 (Molar)
# [4] = Log10 Concentration −7.0 (Molar)
# [5] = Log10 Concentration −8.0 (Molar)
compound,measurement,setting,value
"OCc1cn(Cc2ccc(Cl)cc2)c2ccccc12 [Oncrasin K060, 1H-Indole-3-methanol, 1-[(4-chlorophenyl)methyl]-]",Mean Optical Densities,SW-620; [1],0.116
same,Mean Optical Densities,SW-620; [2],0.423
same,Mean Optical Densities,SW-620; [3],0.732
same,Mean Optical Densities,SW-620; [4],1.298
same,Mean Optical Densities,SW-620; [5],1.444
same,Mean Optical Densities,MOLT-4; [1],0.177
same,Mean Optical Densities,MOLT-4; [2],1.630
same,Mean Optical Densities,MOLT-4; [3],1.921
same,Mean Optical Densities,MOLT-4; [4],1.827
same,Mean Optical Densities,MOLT-4; [5],1.982
same,Mean Optical Densities,SNB-19; [1],0.400
same,Mean Optical Densities,SNB-19; [2],1.287
same,Mean Optical Densities,SNB-19; [3],1.463
same,Mean Optical Densities,SNB-19; [4],1.518
same,Mean Optical Densities,SNB-19; [5],1.682
same,Mean Optical Densities,OVCAR-5; [1],0.185
same,Mean Optical Densities,OVCAR-5; [2],0.283
same,Mean Optical Densities,OVCAR-5; [3],0.940
same,Mean Optical Densities,OVCAR-5; [4],0.428
same,Mean Optical Densities,OVCAR-5; [5],0.628
same,Mean Optical Densities,UACC-62; [1],0.041
same,Mean Optical Densities,UACC-62; [2],0.383
same,Mean Optical Densities,UACC-62; [3],0.715
same,Mean Optical Densities,UACC-62; [4],1.238
same,Mean Optical Densities,UACC-62; [5],1.885
same,Mean Optical Densities,K-562; [1],0.027
same,Mean Optical Densities,K-562; [2],0.135
same,Mean Optical Densities,K-562; [3],0.468
same,Mean Optical Densities,K-562; [4],0.840
same,Mean Optical Densities,K-562; [5],0.717
same,Mean Optical Densities,DU-145; [1],0.100
same,Mean Optical Densities,DU-145; [2],0.475
same,Mean Optical Densities,DU-145; [3],0.821
same,Mean Optical Densities,DU-145; [4],0.888
same,Mean Optical Densities,DU-145; [5],0.885
same,Mean Optical Densities,786-0; [1],0.232
same,Mean Optical Densities,786-0; [2],0.870
same,Mean Optical Densities,786-0; [3],1.586
same,Mean Optical Densities,786-0; [4],1.758
same,Mean Optical Densities,786-0; [5],1.923
same,Mean Optical Densities,HOP-62; [1],0.290
same,Mean Optical Densities,HOP-62; [2],0.569
same,Mean Optical Densities,HOP-62; [3],0.756
same,Mean Optical Densities,HOP-62; [4],0.985
same,Mean Optical Densities,HOP-62; [5],1.182
same,Mean Optical Densities,HCC-2998; [1],0.012
same,Mean Optical Densities,HCC-2998; [2],0.740
same,Mean Optical Densities,HCC-2998; [3],0.887
same,Mean Optical Densities,HCC-2998; [4],1.088
same,Mean Optical Densities,HCC-2998; [5],1.162
same,Mean Optical Densities,CAKI-1; [1],0.433
same,Mean Optical Densities,CAKI-1; [2],0.226
same,Mean Optical Densities,CAKI-1; [3],0.337
same,Mean Optical Densities,CAKI-1; [4],0.416
same,Mean Optical Densities,CAKI-1; [5],0.431
same,Mean Optical Densities,MALME-3M; [1],0.217
same,Mean Optical Densities,MALME-3M; [2],0.592
same,Mean Optical Densities,MALME-3M; [3],0.704
same,Mean Optical Densities,MALME-3M; [4],0.760
same,Mean Optical Densities,MALME-3M; [5],0.742
same,Mean Optical Densities,HL-60(TB); [1],0.072
same,Mean Optical Densities,HL-60(TB); [2],0.402
same,Mean Optical Densities,HL-60(TB); [3],0.918
same,Mean Optical Densities,HL-60(TB); [4],1.057
same,Mean Optical Densities,HL-60(TB); [5],1.135
same,Mean Optical Densities,SF-268; [1],0.238
same,Mean Optical Densities,SF-268; [2],0.859
same,Mean Optical Densities,SF-268; [3],1.179
same,Mean Optical Densities,SF-268; [4],1.215
same,Mean Optical Densities,SF-268; [5],1.294
same,Mean Optical Densities,SK-MEL-28; [1],0.113
same,Mean Optical Densities,SK-MEL-28; [2],0.600
same,Mean Optical Densities,SK-MEL-28; [3],0.702
same,Mean Optical Densities,SK-MEL-28; [4],0.786
same,Mean Optical Densities,SK-MEL-28; [5],0.754
same,Mean Optical Densities,SF-539; [1],0.116
same,Mean Optical Densities,SF-539; [2],0.987
same,Mean Optical Densities,SF-539; [3],1.496
same,Mean Optical Densities,SF-539; [4],1.556
same,Mean Optical Densities,SF-539; [5],1.534
same,Mean Optical Densities,HT29; [1],0.090
same,Mean Optical Densities,HT29; [2],0.725
same,Mean Optical Densities,HT29; [3],1.183
same,Mean Optical Densities,HT29; [4],1.533
same,Mean Optical Densities,HT29; [5],1.910
same,Mean Optical Densities,MDA-MB-231/ATCC; [1],0.380
same,Mean Optical Densities,MDA-MB-231/ATCC; [2],0.904
same,Mean Optical Densities,MDA-MB-231/ATCC; [3],1.255
same,Mean Optical Densities,MDA-MB-231/ATCC; [4],1.932
same,Mean Optical Densities,MDA-MB-231/ATCC; [5],1.237
same,Mean Optical Densities,SNB-75; [1],0.171
same,Mean Optical Densities,SNB-75; [2],0.846
same,Mean Optical Densities,SNB-75; [3],1.193
same,Mean Optical Densities,SNB-75; [4],1.227
same,Mean Optical Densities,SNB-75; [5],1.223
same,Mean Optical Densities,OVCAR-3; [1],0.158
same,Mean Optical Densities,OVCAR-3; [2],0.399
same,Mean Optical Densities,OVCAR-3; [3],0.807
same,Mean Optical Densities,OVCAR-3; [4],1.164
same,Mean Optical Densities,OVCAR-3; [5],1.349
same,Mean Optical Densities,KM12; [1],0.156
same,Mean Optical Densities,KM12; [2],1.236
same,Mean Optical Densities,KM12; [3],1.387
same,Mean Optical Densities,KM12; [4],1.495
same,Mean Optical Densities,KM12; [5],1.441
